Assay [1] addresses T1, sfGFP-SasG-G51-G54-mCherry.
T1 construct: also called sfGFP-G51-G54-mCherry; ~30 nm linker
The assay is described as follows: TEM of co-expressing HEK293T cells.

The target in assay [2] is T2, sfGFP-SasG(G51-G52)-mCherry.
T2 construct: Hetero-bifunctional scaffold: sfGFP, S. aureus SasG G51-E1-G52 (amino acids 419-629), mCherry; also called ~16 nm linker
The assay is described as follows: live wide-field fluorescence microscopy and TEM of co-expressing HEK293T cells.

B1: P2-TmEnc-antimCherry intrabody (LaM-4) (other)
chain: MSPEDKIAQLKEKNAALKEKNQQLKEKIQALKYGGGGGSGPGEFLKRSFAPLTEKQWQEIDNRAREIFKTQLYGRKFVDVEGPYGWEYAAHPLGEVEVLSDENEVVKWGLRKSLPLIELRATFTLDLWELDNLERGKPNVDLSSLEETVRKVAEFEDEVIFRGCEKSGVKGLLSFEERKIECGSTPKDLLEAIVRALSIFSKDGIEGPYTLVINTDRWINFLKEEAGHYPLEKRVEECLRGGKIITTPRIEDALVVSERGGDFKLILGQDLSIGYEDREKDAVRLFITETFTFQVVNPEALILLKGSGSGSETTGAQVQLVESGGSLVQPGGSLRLSCAASGRFAESSSMGWFRQAPGKEREFVAAISWSGGATNYADSAKGRFTLSRDNTKNTVYLQMNSLKPDDTAVYYCAANLGNYISSNQRLYGYWGQGTQVTVS
notes: also called P2-TmEnc^antimcherryIB (LaM-4)
Consider B1, for which the binding result in assay [1] and in assay [2] was “binds” in each case.

The values are drawn from patent publication US20250264455A1 (HELMHOLTZ ZENTRUM M NCHEN DEUTSCHES FORSCHUNGSZENTRUM F R …, published 2025).
